{"source": "the supplement of paper PMC11876631", "molecular_target": "Escherichia coli (laboratory strain)", "test": "barcode share on antibiotic plates over drug-free plates; higher = less susceptible", "description": "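A pool of E. coli strains, each edited to carry one amino-acid change in an essential protein, was grown for 48 h on minimal glucose agar with or without antibiotic; strain barcodes were sequenced; mean of two replicates.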", "key": {"[1]": {"conditions": "antibiotic: carbenicillin, 2× MIC (3.1 µg/mL)"}, "[2]": {"conditions": "antibiotic: gentamicin, 2× MIC (MIC 0.45 µg/mL)"}}, "note": "± gives the standard deviation of the averaged measurements. Laboratory Escherichia coli strains with one amino-acid change in an essential protein, pooled on minimal glucose agar with carbenicillin or gentamicin at twice the control MIC (plus kanamycin and chloramphenicol for the plasmids), 48 h. Fold change of barcode share against drug-free plates; higher = less susceptible. Active = above 20 in both replicates (the paper's putatively resistant). '<' = one read or none on drug, '>' = one read or none on a drug-free plate. Shares are relative, so most strains fall below 1 when a few take over. Listed are strains with at least 15 reads on both drug-free plates, and hits; most hits rest on fewer reference reads. Replicate rank correlation about 0.5. Edits are read from barcodes."}
{"protein": "lpxD F141A (protein) MPSIRLADLAQQLDAELHGDGDIVITGVASMQSAQTGHITFMVNPKYREHLGLCQASAVVMTQDDLPFAKSAALVVKNPYLTYARMAQILDTTPQPAQNIAPSAVIDATAKLGNNVSIGANAVIESGVELGDNVIIGAGCAVGKNSKIGAGSRLWANVTIYHEIQIGQNCLIQSGTVVGADGFGYANDRGNWVKIPQIGRVIIGDRVEIGACTTIDRGALDDTIIGNGVIIDNQCQIAHNVVIGDNTAVAGGVIMAGSLKIGRYCMIGGASVINGHMEICDKVTVTGMGMVMRPITEPGVYSSGIPLQPNKVWRKTAALVMNIDDMSKRLKSLERKVNQQD", "values": [{"measurement": "fold change of barcode share", "setting": "[1]", "value": "0.342 ± 0.17"}, {"measurement": "fold change of barcode share", "setting": "[2]", "value": "< 0.00634"}]}
{"protein": "lpxD V201W (protein) MPSIRLADLAQQLDAELHGDGDIVITGVASMQSAQTGHITFMVNPKYREHLGLCQASAVVMTQDDLPFAKSAALVVKNPYLTYARMAQILDTTPQPAQNIAPSAVIDATAKLGNNVSIGANAVIESGVELGDNVIIGAGCFVGKNSKIGAGSRLWANVTIYHEIQIGQNCLIQSGTVVGADGFGYANDRGNWVKIPQIGRWIIGDRVEIGACTTIDRGALDDTIIGNGVIIDNQCQIAHNVVIGDNTAVAGGVIMAGSLKIGRYCMIGGASVINGHMEICDKVTVTGMGMVMRPITEPGVYSSGIPLQPNKVWRKTAALVMNIDDMSKRLKSLERKVNQQD", "values": [{"measurement": "fold change of barcode share", "setting": "[1]", "value": "0.476 ± 0.27"}, {"measurement": "fold change of barcode share", "setting": "[2]", "value": "< 0.0095"}]}
{"protein": "lpxD V201A (protein) MPSIRLADLAQQLDAELHGDGDIVITGVASMQSAQTGHITFMVNPKYREHLGLCQASAVVMTQDDLPFAKSAALVVKNPYLTYARMAQILDTTPQPAQNIAPSAVIDATAKLGNNVSIGANAVIESGVELGDNVIIGAGCFVGKNSKIGAGSRLWANVTIYHEIQIGQNCLIQSGTVVGADGFGYANDRGNWVKIPQIGRAIIGDRVEIGACTTIDRGALDDTIIGNGVIIDNQCQIAHNVVIGDNTAVAGGVIMAGSLKIGRYCMIGGASVINGHMEICDKVTVTGMGMVMRPITEPGVYSSGIPLQPNKVWRKTAALVMNIDDMSKRLKSLERKVNQQD", "values": [{"measurement": "fold change of barcode share", "setting": "[1]", "value": "0.195 ± 0.1"}, {"measurement": "fold change of barcode share", "setting": "[2]", "value": "< 0.00622"}]}
{"protein": "lpxD M255Q (protein) MPSIRLADLAQQLDAELHGDGDIVITGVASMQSAQTGHITFMVNPKYREHLGLCQASAVVMTQDDLPFAKSAALVVKNPYLTYARMAQILDTTPQPAQNIAPSAVIDATAKLGNNVSIGANAVIESGVELGDNVIIGAGCFVGKNSKIGAGSRLWANVTIYHEIQIGQNCLIQSGTVVGADGFGYANDRGNWVKIPQIGRVIIGDRVEIGACTTIDRGALDDTIIGNGVIIDNQCQIAHNVVIGDNTAVAGGVIQAGSLKIGRYCMIGGASVINGHMEICDKVTVTGMGMVMRPITEPGVYSSGIPLQPNKVWRKTAALVMNIDDMSKRLKSLERKVNQQD", "values": [{"measurement": "fold change of barcode share", "setting": "[1]", "value": "0.216 ± 0.03"}, {"measurement": "fold change of barcode share", "setting": "[2]", "value": "< 0.0137"}]}
{"protein": "lpxD F141Q (protein) MPSIRLADLAQQLDAELHGDGDIVITGVASMQSAQTGHITFMVNPKYREHLGLCQASAVVMTQDDLPFAKSAALVVKNPYLTYARMAQILDTTPQPAQNIAPSAVIDATAKLGNNVSIGANAVIESGVELGDNVIIGAGCQVGKNSKIGAGSRLWANVTIYHEIQIGQNCLIQSGTVVGADGFGYANDRGNWVKIPQIGRVIIGDRVEIGACTTIDRGALDDTIIGNGVIIDNQCQIAHNVVIGDNTAVAGGVIMAGSLKIGRYCMIGGASVINGHMEICDKVTVTGMGMVMRPITEPGVYSSGIPLQPNKVWRKTAALVMNIDDMSKRLKSLERKVNQQD", "values": [{"measurement": "fold change of barcode share", "setting": "[1]", "value": "0.585 ± 0.51"}, {"measurement": "fold change of barcode share", "setting": "[2]", "value": "< 0.00658"}]}
{"protein": "lpxD M255P (protein) MPSIRLADLAQQLDAELHGDGDIVITGVASMQSAQTGHITFMVNPKYREHLGLCQASAVVMTQDDLPFAKSAALVVKNPYLTYARMAQILDTTPQPAQNIAPSAVIDATAKLGNNVSIGANAVIESGVELGDNVIIGAGCFVGKNSKIGAGSRLWANVTIYHEIQIGQNCLIQSGTVVGADGFGYANDRGNWVKIPQIGRVIIGDRVEIGACTTIDRGALDDTIIGNGVIIDNQCQIAHNVVIGDNTAVAGGVIPAGSLKIGRYCMIGGASVINGHMEICDKVTVTGMGMVMRPITEPGVYSSGIPLQPNKVWRKTAALVMNIDDMSKRLKSLERKVNQQD", "values": [{"measurement": "fold change of barcode share", "setting": "[1]", "value": "0.106 ± 0.066"}, {"measurement": "fold change of barcode share", "setting": "[2]", "value": "< 0.02"}]}
{"protein": "lpxD F141W (protein) MPSIRLADLAQQLDAELHGDGDIVITGVASMQSAQTGHITFMVNPKYREHLGLCQASAVVMTQDDLPFAKSAALVVKNPYLTYARMAQILDTTPQPAQNIAPSAVIDATAKLGNNVSIGANAVIESGVELGDNVIIGAGCWVGKNSKIGAGSRLWANVTIYHEIQIGQNCLIQSGTVVGADGFGYANDRGNWVKIPQIGRVIIGDRVEIGACTTIDRGALDDTIIGNGVIIDNQCQIAHNVVIGDNTAVAGGVIMAGSLKIGRYCMIGGASVINGHMEICDKVTVTGMGMVMRPITEPGVYSSGIPLQPNKVWRKTAALVMNIDDMSKRLKSLERKVNQQD", "values": [{"measurement": "fold change of barcode share", "setting": "[1]", "value": "0.395 ± 0.15"}, {"measurement": "fold change of barcode share", "setting": "[2]", "value": "0.0302 ± 0.032"}]}
{"protein": "lpxD V201D (protein) MPSIRLADLAQQLDAELHGDGDIVITGVASMQSAQTGHITFMVNPKYREHLGLCQASAVVMTQDDLPFAKSAALVVKNPYLTYARMAQILDTTPQPAQNIAPSAVIDATAKLGNNVSIGANAVIESGVELGDNVIIGAGCFVGKNSKIGAGSRLWANVTIYHEIQIGQNCLIQSGTVVGADGFGYANDRGNWVKIPQIGRDIIGDRVEIGACTTIDRGALDDTIIGNGVIIDNQCQIAHNVVIGDNTAVAGGVIMAGSLKIGRYCMIGGASVINGHMEICDKVTVTGMGMVMRPITEPGVYSSGIPLQPNKVWRKTAALVMNIDDMSKRLKSLERKVNQQD", "values": [{"measurement": "fold change of barcode share", "setting": "[1]", "value": "0.905 ± 0.95"}, {"measurement": "fold change of barcode share", "setting": "[2]", "value": "< 0.0109"}]}
{"protein": "lpxD M255A (protein) MPSIRLADLAQQLDAELHGDGDIVITGVASMQSAQTGHITFMVNPKYREHLGLCQASAVVMTQDDLPFAKSAALVVKNPYLTYARMAQILDTTPQPAQNIAPSAVIDATAKLGNNVSIGANAVIESGVELGDNVIIGAGCFVGKNSKIGAGSRLWANVTIYHEIQIGQNCLIQSGTVVGADGFGYANDRGNWVKIPQIGRVIIGDRVEIGACTTIDRGALDDTIIGNGVIIDNQCQIAHNVVIGDNTAVAGGVIAAGSLKIGRYCMIGGASVINGHMEICDKVTVTGMGMVMRPITEPGVYSSGIPLQPNKVWRKTAALVMNIDDMSKRLKSLERKVNQQD", "values": [{"measurement": "fold change of barcode share", "setting": "[1]", "value": "0.293 ± 0.19"}, {"measurement": "fold change of barcode share", "setting": "[2]", "value": "< 0.00909"}]}
{"protein": "aroD I11W (protein) MKTVTVKDLVWGTGAPKIIVSLMAKDIASVKSEALAYREADFDILEWRVDHYADLSNVESVMAAAKILRETMPEKPLLFTFRSAKEGGEQAISTEAYIALNRAAIDSGLVDMIDLELFTGDDQVKETVAYAHAHDVKVVMSNHDFHKTPEAEEIIARLRKMQSFDADIPKIALMPQSTSDVLTLLAATLEMQEQYADRPIITMSMAKTGVISRLAGEVFGSAATFGAVKKASAPGQISVNDLRTVLTILHQA", "values": [{"measurement": "fold change of barcode share", "setting": "[1]", "value": "0.505 ± 0.13"}, {"measurement": "fold change of barcode share", "setting": "[2]", "value": "< 0.00974"}]}
{"protein": "lpxC F129W (protein) MIKQRTLKRIVQATGVGLHTGKKVTLTLRPAPANTGVIYRRTDLNPPVDFPADAKSVRDTMLCTCLVNEHDVRISTVEHLNAALAGLGIDNIVIEVNAPEIPIMDGSAAPFVYLLLDAGIDELNCAKKWVRIKETVRVEDGDKWAEFKPYNGFSLDFTIDFNHPAIDSSNQRYAMNFSADAFMRQISRARTFGFMRDIEYLQSRGLCLGGSFDCAIVVDDYRVLNEDGLRFEDEFVRHKMLDAIGDLFMCGHNIIGAFTAYKSGHALNNKLLQAVLAKQEAWEYVTFQDDAELPLAFKAPSAVLA", "values": [{"measurement": "fold change of barcode share", "setting": "[1]", "value": "0.237 ± 0.076"}, {"measurement": "fold change of barcode share", "setting": "[2]", "value": "< 0.00876"}]}
{"protein": "lpxC L84Q (protein) MIKQRTLKRIVQATGVGLHTGKKVTLTLRPAPANTGVIYRRTDLNPPVDFPADAKSVRDTMLCTCLVNEHDVRISTVEHLNAAQAGLGIDNIVIEVNAPEIPIMDGSAAPFVYLLLDAGIDELNCAKKFVRIKETVRVEDGDKWAEFKPYNGFSLDFTIDFNHPAIDSSNQRYAMNFSADAFMRQISRARTFGFMRDIEYLQSRGLCLGGSFDCAIVVDDYRVLNEDGLRFEDEFVRHKMLDAIGDLFMCGHNIIGAFTAYKSGHALNNKLLQAVLAKQEAWEYVTFQDDAELPLAFKAPSAVLA", "values": [{"measurement": "fold change of barcode share", "setting": "[1]", "value": "0.966 ± 0.091"}]}
{"protein": "lpxC I186A (protein) MIKQRTLKRIVQATGVGLHTGKKVTLTLRPAPANTGVIYRRTDLNPPVDFPADAKSVRDTMLCTCLVNEHDVRISTVEHLNAALAGLGIDNIVIEVNAPEIPIMDGSAAPFVYLLLDAGIDELNCAKKFVRIKETVRVEDGDKWAEFKPYNGFSLDFTIDFNHPAIDSSNQRYAMNFSADAFMRQASRARTFGFMRDIEYLQSRGLCLGGSFDCAIVVDDYRVLNEDGLRFEDEFVRHKMLDAIGDLFMCGHNIIGAFTAYKSGHALNNKLLQAVLAKQEAWEYVTFQDDAELPLAFKAPSAVLA", "values": [{"measurement": "fold change of barcode share", "setting": "[1]", "value": "0.396 ± 0.15"}, {"measurement": "fold change of barcode share", "setting": "[2]", "value": "< 0.0175"}]}
{"protein": "lpxC L84A (protein) MIKQRTLKRIVQATGVGLHTGKKVTLTLRPAPANTGVIYRRTDLNPPVDFPADAKSVRDTMLCTCLVNEHDVRISTVEHLNAAAAGLGIDNIVIEVNAPEIPIMDGSAAPFVYLLLDAGIDELNCAKKFVRIKETVRVEDGDKWAEFKPYNGFSLDFTIDFNHPAIDSSNQRYAMNFSADAFMRQISRARTFGFMRDIEYLQSRGLCLGGSFDCAIVVDDYRVLNEDGLRFEDEFVRHKMLDAIGDLFMCGHNIIGAFTAYKSGHALNNKLLQAVLAKQEAWEYVTFQDDAELPLAFKAPSAVLA", "values": [{"measurement": "fold change of barcode share", "setting": "[1]", "value": "1.12 ± 0.48"}, {"measurement": "fold change of barcode share", "setting": "[2]", "value": "0.00434 ± 0.0024"}]}
